Test results: PubChem BioAssay AID743286 (National Center for Advancing Translational Sciences (NCATS), 2014)
In all, about 1,100 compounds went through this assay and about 340 (31%) were called active. The inconclusive results got no clear call from the source; some entries with a clear call stand among them for comparison. Calls come from the whole dose curve; as a rule, active = well fitted inhibition curve with a large enough effect; inconclusive = small, poorly fitted or top-dose-only effect; inactive = flat fitted curve, though single readings scatter. Where the call is inconclusive, the potency comes from a doubtful curve fit.

Molecular target: Phosphatidylinositol 5-phosphate 4-kinase type-2 alpha (Homo sapiens) (UniProt P48426)
Assay: qHTS for Inhibitors of PI5P4K: Confirmation in Primary Assay; note: nearly all actives have a fitted effect of over 65% in size
Conditions: PI5P4Kalpha enzyme, ADP-Glo luminescence, 60 min; series mostly up to 76.9 µM
From the text: In addition to finding PI5P, we discovered the type II phosphatidylinositol 5-phosphate 4-kinase (PI5P4K) family (alpha, beta, gamma isoforms) that catalyze the conversion of PI5P to PI(4,5)P2. Alternatively, PI(4,5)P2 can also be synthesized through phosphatidylinositol-4-phosphate (PI4P) by the type I phosphatidylinositol 4-phosphate 5-kinases (PI4P5K). These PI5P4K enzymes therefore represent one way by which cells can regulate endogenous PI5P levels and play important roles in insulin signaling and in stress responses. […] A qHTS PI5P4K-alpha ADP-Glo assay was developed to identify specific modulators of human PI5P4K, phosphatidylinositol-5-phosphate 4-kinase (Type II PIPK). This assay was screened against the MLSMR containing ~400,000 small molecules (PubChem AID 652105). To confirm that the hits were not interacting with the detection enzyme system, a 1536-well counterscreen against the ADP-Glo kit (Promega) was utilized, as described in Davis et al., 2013 [1]. Davis et al., PLoS One. 2013;8(1):e54127. NIH Chemical Genomics Center [NCGC] NIH Molecular Libraries Probe Centers Network [MLPCN] MLPCN Grant: MH096575 Assay Submitter (PI): Atsuo Sasaki, Beth Israel Deaconess Medical Center
2 microL of PI5P4Kalpha/substrate buffer (columns 1-2, 5-48) are dispensed into Greiner white solid bottom 1536-well assay plates; column 3 receives only PI5P4Kalpha buffer as 0x substrate controls; column 4 receives only substrate buffer as 0x PI5P4Kalpha controls. Final assay buffer consists of 0.038 M HEPES pH 7.4, 0.28 mM EGTA, 0.1% CHAPS, and 5% DMSO (final concentration). Compounds are then transferred via Kalypsys pin tool equipped with 1536-pin array (10 nL slotted pins, V&P Scientific, San Diego, CA). Following addition of compound, 1 microL of ATP (5 microM final concentration, all columns) is added to initiate the reaction. ATP is diluted in an assay buffer consisting of 0.02 M HEPES pH 7.4, 60 mM MgCl2, 15 microM ATP, and 0.1% CHAPS. The plates are then incubated at room temperature for 60 minutes. ADP-Glo reagent 1 is added (2 microL) and plates incubated for 45 minutes, before ADP-Glo reagent 2 (4 microL) is added and plates incubated for 30 minutes. They are then transferred to a ViewLux high-throughput CCD imager (PerkinElmer) wherein single end-point measurements of luminescence are acquired using a clear filter.
Potency is the fitted concentration of half-maximal effect; tags give direction and shape of the fitted curve.

UniProt P48426, sequence (P48426 whole entry, looked up): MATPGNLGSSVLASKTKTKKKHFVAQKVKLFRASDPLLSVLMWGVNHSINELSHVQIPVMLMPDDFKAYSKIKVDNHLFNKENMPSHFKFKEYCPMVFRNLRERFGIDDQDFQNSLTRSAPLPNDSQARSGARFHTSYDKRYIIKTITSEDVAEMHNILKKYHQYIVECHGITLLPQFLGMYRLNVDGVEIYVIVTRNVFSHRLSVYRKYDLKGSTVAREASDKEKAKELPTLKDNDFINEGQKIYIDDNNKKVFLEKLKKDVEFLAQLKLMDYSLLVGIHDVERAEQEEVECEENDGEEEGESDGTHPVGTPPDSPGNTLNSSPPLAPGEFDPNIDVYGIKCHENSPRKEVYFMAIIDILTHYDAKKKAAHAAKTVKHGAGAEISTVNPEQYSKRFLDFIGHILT

Potency, active:
COc1ccc(Cl)cc1C(Nc1cccnc1)c1ccc2cccnc2c1O (stereo not drawn) 12.6 µM, CCCCCCNC(=O)c1cc(-c2ccco2)nc2ccccc12 7.08 µM, Cn1c(=O)c2[nH]c(-c3ccc(S(=O)(=O)O)cc3)nc2n(C)c1=O 12.6 µM, COc1cccc(NS(=O)(=O)c2ccc3c(c2)C2C=CCC2C(c2ccc(C(=O)O)cc2)N3)c1 (stereo not drawn) 31.6 µM, CC1CCCCC1NC(=O)COC(=O)c1c2c(nc3ccccc13)/C(=C\c1ccco1)CC2 (stereo not drawn) 1.26 µM, COc1cc(C(=O)Nc2scc(-c3ccccc3)c2C(=O)O)cc(OC)c1OC 12.6 µM, N#Cc1c(NC(=O)CSc2ncnc3sccc23)oc(-c2ccco2)c1-c1ccco1 17.8 µM, O=C(Oc1ccc2c(c1)OCO2)c1cc2c(s1)CCC2 2.24 µM, COc1ccc(CCNC(=O)c2cc(-c3ccco3)nc3ccccc23)cc1 15.8 µM, COc1ccc(NC(=O)CN(C)C(=O)c2cc(-c3ccco3)nc3ccccc23)cc1 5.01 µM, COc1cc(Cl)c(C)cc1NC(=O)CSc1sc2c(O)cc(=O)[nH]c2c1C#N 5.01 µM, Cc1ccc(C(c2cc(Cl)c3cccnc3c2O)N2CCN(C)CC2)cc1 (stereo not drawn) 15.8 µM, Cc1ccc(-c2cc(C(=O)NCc3ccco3)c3ccccc3n2)o1 14.1 µM, Cc1ccc(-c2csc(NC(=O)c3ccc(Br)cc3)c2C(=O)O)cc1 14.1 µM, O=C(Cc1ccc(S(=O)(=O)N2CCOCC2)s1)Nc1nc2c(s1)CCCC2 14.1 µM

Potency, inconclusive:
Cn1c(SCC(=O)NC(=O)NCc2ccco2)nnc1-c1ccccc1 14.1 µM [inhibitor, partial curve], Cc1ccc(CNc2ncnc3ccc(-c4ccoc4C)cc23)o1 35.5 µM [inhibitor, partial curve], Cc1cccc(NC(=O)CNC(=O)c2sc3ccccc3c2Cl)n1 10 µM [inhibitor, partial curve], Cc1ccccc1NC(=O)Cc1nc(COC(=O)c2ccc(NC(N)=O)cc2)cs1 17.8 µM [inhibitor, partial curve], CCCCc1nnc(NC(=O)CC(=O)Nc2ccccc2C(=O)O)s1 22.4 µM [inhibitor, partial curve], CCN(CC(=O)Nc1c(F)cccc1F)C(=O)c1cccc(-n2cccc2)c1 11.2 µM [inhibitor, partial curve], COc1ccc(Nc2ccc(Cl)cc2)c(C(=O)O)c1 15.8 µM [inhibitor, partial curve], O=c1cc(O)c2sc(Nc3ccc(F)cc3)nc2[nH]1 31.6 µM [inhibitor, partial curve], CS(=O)(=O)c1ccc2nc(NC(=O)c3ccc(NS(=O)(=O)c4cccc([N+](=O)[O-])c4)cc3)sc2c1 7.08 µM [inhibitor, full curve], CCCCNC(=O)c1onc(CSc2ccc(OC)cc2)c1C(=O)O 35.5 µM [inhibitor, single point], Cc1ccc(-c2csc(Nc3ccc(S(N)(=O)=O)cc3)n2)o1 15.8 µM [inhibitor, partial curve], O=C(COC(=O)c1ccccc1O)NCc1ccco1 14.1 µM [inhibitor, partial curve], Cc1nn2c(=O)[nH]cnc2c1Cl 22.4 µM [inhibitor, partial curve], O=C(NCc1ccc2c(c1)OCO2)c1cc2ncc(Br)cn2n1 15.8 µM [inhibitor, partial curve], Cc1ccc(-c2csc(NC(=O)c3ccc(F)cc3)c2C(=O)O)cc1 22.4 µM [inhibitor, partial curve], O=C(Nc1sc2c(c1C(=O)O)CCC2)c1ccccc1Cl 20 µM [inhibitor, partial curve], CC(NC(=O)c1sc2cc([N+](=O)[O-])ccc2c1Cl)C(C)(C)C (stereo not drawn) 3.55 µM [inhibitor, full curve], CCn1c(SCC(=O)NC(=O)NCc2ccco2)nc2sc(C)c(C)c2c1=O 12.6 µM [inhibitor, partial curve], Cn1c(SCC(=O)Nc2ccc(Cl)cc2)nc(O)cc1=O 28.2 µM [inhibitor, single point], CC(=O)NC12CC3CC(C1)CC(C(=O)OCC(=O)Nc1ncc(Cl)c(C)c1Cl)(C3)C2 20 µM [inhibitor, partial curve], COc1ccccc1CNc1nc(NCc2ccccc2OC)c2sccc2n1 31.6 µM [inhibitor, single point], COCc1cc(=O)n2[nH]c(-c3ccsc3-n3c(C)ccc3C)cc2n1 25.1 µM [inhibitor, partial curve], CNC(=S)N(Cc1cccs1)Cc1cc2ccc(OC)cc2[nH]c1=O 28.2 µM [inhibitor, partial curve], COc1cccc(CNC(=O)Cc2ccc(NC(=O)C3=C(C)OCCS3)cc2)c1 14.1 µM [inhibitor, partial curve], COc1ccccc1NCCC(=O)OCC(=O)NCc1ccco1 12.6 µM [inhibitor, partial curve], COc1ccc(Cl)cc1NC(=O)CSc1nc2sccc2c(=O)[nH]1 22.4 µM [inhibitor, partial curve], O=C(O)c1cc(-c2ccc(-c3c(-c4ccc5c(c4)OCO5)noc3-c3ccsc3)cc2)nc2ccccc12 28.2 µM [inhibitor, partial curve], O=c1c(Cc2ccccc2)c(O)nc2n1CCS2 25.1 µM [inhibitor, partial curve], O=C(Cc1cccs1)Nc1nnc(SCc2cccc3ccccc23)s1 17.8 µM [inhibitor, partial curve], CCC(C)COC(=O)c1ccc(C(=O)O)cc1 (stereo not drawn) 20 µM [inhibitor, partial curve], O=C1CC(c2ccccc2)=NN1c1ccc([N+](=O)[O-])cc1 22.4 µM [inhibitor, partial curve], C1=C(c2ccc(-c3ccccc3)cc2)Nc2ncnn2C1c1ccco1 (stereo not drawn) 28.2 µM [inhibitor, partial curve], Cc1ccc(Cl)cc1N1CCN(S(=O)(=O)c2ccc3[nH]c(=O)c(=O)[nH]c3c2)CC1 31.6 µM [inhibitor, single point], CN(c1ccc(-c2csc(NC(=O)CCCc3nc4ccccc4c(=O)[nH]3)n2)cc1)S(C)(=O)=O 28.2 µM [inhibitor, partial curve], O=C(Cc1cccs1)Nc1ccc(N2CCOCC2)cc1 31.6 µM [inhibitor, partial curve], CS(=O)(=O)Nc1ccc(C2=NN(C(=O)c3ccco3)C(c3ccccc3)C2)cc1 (stereo not drawn) 28.2 µM [inhibitor, partial curve]

Potency, inactive:
CCn1c(C(=O)OC)cc2c1ccn2-c1ccc(F)cc1, COC(=O)CNC(=O)C1Cc2ccccc2CN1S(=O)(=O)c1cccs1 (stereo not drawn), O=C(CCN1CCc2ccccc2C(c2ccccc2)C1)c1ccc2c(c1)OCCO2 (stereo not drawn), O=C(NC1CC1)C1=C[C@@H](c2c[nH]c3ccccc23)C[C@@H](OCc2ccc(CO)cc2)O1, Cc1ccc(NC(=O)Nc2cccs2)cc1, Cc1nnc(-c2ccccc2)nc1N(C)C, CN1CCN(C(c2ccccc2)c2ccc(Cl)cc2)CC1 (stereo not drawn), O=C(Nc1nc(-c2ccco2)cs1)c1ccccc1, CCOC(=O)C1=C(CC)Nc2ccccc2N=C1NC(=O)c1ccc(S(=O)(=O)N(C)C)cc1, CC1(C)Cc2cccc(OCC(=O)NCCOc3ccccc3)c2O1, COc1ccc2nc(SCC(=O)N3CCN(c4ccc(F)cc4)CC3)c(C#N)cc2c1, O=C(COc1ccc([N+](=O)[O-])cc1)Nc1cccnc1, NC(=O)C1CCN(c2cc(Cl)nc(N)n2)CC1, COCCn1nnnc1C(c1cc2cc(OC)c(OC)cc2[nH]c1=O)N1CCN(c2ccc(O)cc2)CC1 (stereo not drawn), COC(=O)c1c(NC(C)=O)sc(C(=O)Nc2ccccc2)c1C, Cc1ccc(CSCC(=O)N2CCOCC2)cc1, CCc1nnc(NC(=O)c2ccc(S(C)(=O)=O)cc2)s1, COC(=O)c1c[nH]c(=O)c2ccccc12, COc1cccc(CNc2nc(NC(C)C)nc3ccsc23)c1, Cc1nn(-c2ccccc2)c2nc(=O)n(-c3ccccc3)cc12, Cc1ccc2cc(CCl)c(Cl)nc2c1, CC(C)(C)[C@H]1C=C(C(=O)N2CCOCC2)O[C@@H](OCc2ccc(CO)cc2)C1, O=C(Nc1cccc2cccnc12)c1csc(COCCO)n1, Clc1ccc2nc(CSc3nc4ccccc4o3)cn2c1, COC(=O)c1ccccc1NC(=O)CN1CCC(n2nnc3cc(C(F)(F)F)ccc32)CC1, COc1ccc(CCNC(=O)CNCC(c2ccccc2)N(C)C)cc1OC (stereo not drawn), Cc1cccc2cc(CN(Cc3cccnc3)C(=S)NCCCN(C)C)c(=O)[nH]c12
